Publication PMC11149917, “Translational and Therapeutic Evaluation of RAS-GTP Inhibition by RMC-6236 in RAS-Driven Cancers” (Cancer Discovery, 2024)
“And” between values parts separate entries of the source, which are not always exact repeats. Equal entries are not always repeated. This continues a long series; more values of the same kind are listed elsewhere.

Assay: Mouse blood and tissue PK (LC/MS-MS)
Assay type: in vivo
Method: For single-dose PKPD study, mice were randomized and assigned into groups (n = 3/dose/time point). […] Blood and tissues, including the tumor, brain, colon, ear skin, and muscle, were harvested at indicated time points. […] The whole blood, tumor, brain, colon, and ear skin concentrations of RMC-6236 were determined using liquid chromatography–tandem mass spectrometry (LC/MS-MS) methods. […] After thorough mixing and centrifugation, the supernatant was diluted with water or directly analyzed on a Sciex 5500 or Sciex 6500+ triple quadrupole mass spectrometer equipped with an ACQUITY or Shimadzu UPLC system. […] Bioanalysis on blood and tissue samples from xenograft models was run at Pharmaron and Wuxi AppTec. Concentrations reported as below the quantification limit were treated as zero for PK analysis. PK parameters were calculated by noncompartmental analysis of the concentration–time profiles using Phoenix WinNonLin (version 8.3 Certara). Apparent terminal elimination half-life (t1/2) values were calculated as ln(2)/k, where k represents the terminal elimination rate constant. Area under the concentration–time curve (AUC) values were estimated using a linear trapezoidal method. AUClast values were calculated from the dosing time to the last quantifiable concentration. Maximum concentration (Cmax) was recorded as observed.

## CCn1c(-c2cc(N3CCN(C)CC3)cnc2[C@H](C)OC)c2c3cc(ccc31)-c1csc(n1)C[C@H](NC(=O)[C@H]1C[C@@H]1C)C(=O)N1CCC[C@H](N1)C(=O)OCC(C)(C)C2 [RMC-6236]
NCI-H441 xenograft tumor, study NCI-H441#8, 40 mg/kg, 8h
  RMC-6236 (nM) Tumor: 3243 nM and 4081 nM
NCI-H441 xenograft tumor, study NCI-H441#10, 0.3 mg/kg, 24h
  RMC-6236 (nM) Tumor: 40.7 nM and 58.2 nM
NCI-H441 xenograft tumor, study NCI-H441#10, 1 mg/kg, 8h
  RMC-6236 (nM) Tumor: 157 nM and 88.8 nM
NCI-H441 xenograft tumor, study NCI-H441#10, 10 mg/kg, 8h
  RMC-6236 (nM) Tumor: 808 nM and 727 nM
NCI-H441 xenograft tumor, study NCI-H441#10, 10 mg/kg, 24h
  RMC-6236 (nM) Tumor: 343 nM and 384 nM
NCI-H441 xenograft tumor, study NCI-H441#10, 10 mg/kg, 48h
  RMC-6236 (nM) Tumor: 152 nM and 104 nM
NCI-H441 xenograft tumor, study NCI-H441#13, 0.3 mg/kg, 8h
  RMC-6236 (nM) Tumor: 49 nM and 69.4 nM
NCI-H441 xenograft tumor, study NCI-H441#13, 1 mg/kg, 8h
  RMC-6236 (nM) Tumor: 93.2 nM and 61.8 nM
Sheet Ear Skin, model Capan-2, study Capan-2 #3_PHA 2023, 3 mg/kg, 2h
  RMC-6236 (nM) Tumor: 208.369 nM and 141.79 nM
Sheet Ear Skin, model Capan-2, study Capan-2 #3_PHA 2023, 3 mg/kg, 4h
  RMC-6236 (nM) Tumor: 246.591 nM and 226.864 nM
Sheet Ear Skin, model Capan-2, study Capan-2 #3_PHA 2023, 3 mg/kg, 8h
  RMC-6236 (nM) Tumor: 226.864 nM and 210.835 nM
Sheet Ear Skin, model Capan-2, study Capan-2 #3_PHA 2023, 3 mg/kg, 24h
  RMC-6236 (nM) Tumor: 45.0028 nM and 56.9625 nM
Sheet Ear Skin, model Capan-2, study Capan-2 #3_PHA 2023, 10 mg/kg, 2h
  RMC-6236 (nM) Tumor: 649.767 nM and 768.131 nM
Sheet Ear Skin, model Capan-2, study Capan-2 #3_PHA 2023, 10 mg/kg, 4h
  RMC-6236 (nM) Tumor: 1150.35 nM and 812.517 nM
Sheet Ear Skin, model Capan-2, study Capan-2 #3_PHA 2023, 10 mg/kg, 8h
  RMC-6236 (nM) Tumor: 583.187 nM and 744.704 nM
Sheet Ear Skin, model Capan-2, study Capan-2 #3_PHA 2023, 10 mg/kg, 24h
  RMC-6236 (nM) Tumor: 124.528 nM and 245.358 nM
Sheet Ear Skin, model Capan-2, study Capan-2 #3_PHA 2023, 25 mg/kg, 2h
  RMC-6236 (nM) Tumor: 2170 nM and 2527.56 nM
Sheet Ear Skin, model Capan-2, study Capan-2 #3_PHA 2023, 25 mg/kg, 4h
  RMC-6236 (nM) Tumor: 3809.83 nM and 2897.44 nM
Sheet Ear Skin, model Capan-2, study Capan-2 #3_PHA 2023, 25 mg/kg, 8h
  RMC-6236 (nM) Tumor: 1985.06 nM and 2034.37 nM
Sheet Ear Skin, model Capan-2, study Capan-2 #3_PHA 2023, 25 mg/kg, 24h
  RMC-6236 (nM) Tumor: 818.682 nM and 430.301 nM
Sheet Ear Skin, model Capan-2, study Capan-2 #3_PHA 2023, 25 mg/kg, 48h
  RMC-6236 (nM) Tumor: 180.011 nM and 125.761 nM
Sheet Ear Skin, model Capan-2, study Capan-2 #3_PHA 2023, 50 mg/kg, 2h
  RMC-6236 (nM) Tumor: 5178.41 nM and 5646.93 nM
Sheet Ear Skin, model Capan-2, study Capan-2 #3_PHA 2023, 50 mg/kg, 4h
  RMC-6236 (nM) Tumor: 5314.03 nM and 6929.2 nM
Sheet Ear Skin, model Capan-2, study Capan-2 #3_PHA 2023, 50 mg/kg, 8h
  RMC-6236 (nM) Tumor: 5264.72 nM and 4031.76 nM
Sheet Ear Skin, model Capan-2, study Capan-2 #3_PHA 2023, 50 mg/kg, 24h
  RMC-6236 (nM) Tumor: 1086.23 nM and 1294.6 nM
Sheet Ear Skin, model Capan-2, study Capan-2 #3_PHA 2023, 50 mg/kg, 48h
  RMC-6236 (nM) Tumor: 377.284 nM and 445.097 nM
Sheet Ear Skin, model Capan-2, study Capan-2 #3_PHA 2023, 100 mg/kg, 2h
  RMC-6236 (nM) Tumor: 12329.5 nM and 13932.4 nM
Sheet Ear Skin, model Capan-2, study Capan-2 #3_PHA 2023, 100 mg/kg, 8h
  RMC-6236 (nM) Tumor: 8297.78 nM and 11552.8 nM
Sheet Ear Skin, model Capan-2, study Capan-2 #3_PHA 2023, 100 mg/kg, 24h
  RMC-6236 (nM) Tumor: 1553.52 nM
Sheet Ear Skin, model KP-4, study KP-4 #5, 25 mg/kg, 4h
  RMC-6236 (nM) Tumor: 2332.75 nM and 1993.69 nM
Sheet Ear Skin, model KP-4, study KP-4 #5, 25 mg/kg, 8h
  RMC-6236 (nM) Tumor: 2441.25 nM and 2617.56 nM
Sheet Ear Skin, model KP-4, study KP-4 #5, 25 mg/kg, 48h
  RMC-6236 (nM) Tumor: 162.75 nM and 256.331 nM
Sheet colon, Capan-2, Capan-2 #3_PHA 2023, 3 mg/kg, 2h
  RMC-6236 (nM) Tumor: 1565.85 nM and 1134.32 nM
Sheet colon, Capan-2, Capan-2 #3_PHA 2023, 3 mg/kg, 8h
  RMC-6236 (nM) Tumor: 865.534 nM and 498.114 nM
Sheet colon, Capan-2, Capan-2 #3_PHA 2023, 10 mg/kg, 4h
  RMC-6236 (nM) Tumor: 4586.59 nM and 2317.95 nM
Sheet colon, Capan-2, Capan-2 #3_PHA 2023, 10 mg/kg, 8h
  RMC-6236 (nM) Tumor: 2243.98 nM and 1911.08 nM
Sheet colon, Capan-2, Capan-2 #3_PHA 2023, 25 mg/kg, 2h
  RMC-6236 (nM) Tumor: 7040.17 nM and 8347.1 nM
Sheet colon, Capan-2, Capan-2 #3_PHA 2023, 25 mg/kg, 4h
  RMC-6236 (nM) Tumor: 5745.57 nM and 4808.52 nM
Sheet colon, Capan-2, Capan-2 #3_PHA 2023, 25 mg/kg, 8h
  RMC-6236 (nM) Tumor: 4389.32 nM and 4007.1 nM
Sheet colon, Capan-2, Capan-2 #3_PHA 2023, 50 mg/kg, 2h
  RMC-6236 (nM) Tumor: 11219.9 nM and 18371 nM
Sheet colon, Capan-2, Capan-2 #3_PHA 2023, 50 mg/kg, 4h
  RMC-6236 (nM) Tumor: 10307.5 nM and 6510 nM
Sheet colon, Capan-2, Capan-2 #3_PHA 2023, 50 mg/kg, 24h
  RMC-6236 (nM) Tumor: 126.994 nM and 101.842 nM
Sheet colon, Capan-2, Capan-2 #3_PHA 2023, 100 mg/kg, 2h
  RMC-6236 (nM) Tumor: 24782.4 nM and 20713.6 nM
Sheet colon, Capan-2, Capan-2 #3_PHA 2023, 100 mg/kg, 4h
  RMC-6236 (nM) Tumor: 28111.4 nM and 21823.3 nM
Sheet colon, Capan-2, Capan-2 #3_PHA 2023, 100 mg/kg, 24h
  RMC-6236 (nM) Tumor: 371.119 nM and 330.432 nM
Sheet colon, KP-4, KP-4 #5, 25 mg/kg, 4h
  RMC-6236 (nM) Tumor: 6252.31 nM and 5628.44 nM
